Some of the results follow. Antibody binding of pooled human sera (four to six donors per pool; dilution not stated) to peptides of the Trypanosoma cruzi antigen TSSA on microarrays. Quantile-normalised fluorescence in arbitrary units, mean of duplicate arrays; higher = more binding. No active / inactive call. The uninfected pools are read here as the healthy donors of the same country. The strongest signals lie near the top of the scale (about 60,000).

The test deals with pooled sera of uninfected people, Colombia. As to the kind of experiment: antibody binding signal (normalised fluorescence) (arbitrary fluorescence units); higher = stronger serum antibody binding to peptide. How it is done:
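Microarray of 15-residue peptides over residues 30-55 of Trypanosoma cruzi TSSAII, each with 1 to 10 substitutions at naturally variable positions, probed with one serum pool per country.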
For the sequence PPSGTDNKPAAGGAP, the antibody binding signal stood at 994. The value for GTEKKAATGETPSQS was 634; that for KENKAATGEAPSQSG was 155. The sequence KEKKTAAGGAPSQPG yielded an antibody binding signal of 189. Sequence SSTPPSGKDKKAAAG showed an antibody binding signal of 153. The value for KEKKTATGEAPSQPG was 84.5; that for EKKTAAGGTPSQPGA was 313; that for DKKPAAGEAPSPSGA was 105.

SGKEKKTATGGAPSP showed an antibody binding signal of 102. In the case of TDKKAAAGGTPSQSG, the antibody binding signal amounted to 153. The value for TISTPPSGKDNKTAA was 274; that for TEKKTATGETPSQSG was 141; that for TENKTATGETPSQSG was 147.

The sequence EKKTATGEAPSQPGA gave an antibody binding signal of 126. The figure for TPPSGKENKAAAGEA is 1410; for GTEKKTAAGEAPSQP it is 2360; for NKPATGETPSPSGAS it is 314.

Turning to TDNKPATGGAPSQSG, the antibody binding signal stood at 210. The figure for KEKKAATGEAPSQPG is 219. The figure for TPPSGKDNKTAAGEA is 253. The value for TDKKPATGETPSPPG was 156; that for PPSGTDNKAAAGGTP was 710; that for KDKKPATGEAPSPSG was 158.

Turning to NKAATGEAPSQPGAS, the antibody binding signal was 434. Regarding DKKPAAGGTPSPPGA, the antibody binding signal is 218. The figure for DNKTAAGETPSQSGA is 154; for KKTAAGEAPSPPGAS it is 742; for GTENKTAAGGTPSQS it is 321. The figure for KDKKTATGGTPSPPG is 105. Regarding TDKKAATGGTPSPPG, the antibody binding signal was found to be 1060. The value for TISTPPSGTEKKPAA was 328; that for SGKDNKAAAGGAPSP was 424; that for GTEKKPATGGAPSQS was 185. The value for SGTDNKAAAGETPSP was 128. For PPSGTDNKTATGETP, the antibody binding signal was 240.

SGTENKTAAGGAPSP displayed an antibody binding signal of 393. Sequence GTDKKAATGETPSQP showed an antibody binding signal of 520. Take GKENKTATGGAPSPP: the antibody binding signal was found to be 118.

The sequence TPPSGTDNKPATGET showed an antibody binding signal of 379. Sequence KDKKTAAGGTPSPSG registered an antibody binding signal of 137.

These data come from the supplement of paper PMC10441789.
